The text below walks through data of patent publication US20170326249A1, “ANTIBODY-DRUG CONJUGATE OF AN ANTI-GLYPICAN-3 ANTIBODY AND A TUBULYSIN ANALOG, PREPARATION AND USES” (Bristol-Myers Squibb Company, priority 2016, published 2017).

The subject of one assay is Hep3B tumors. Kind of assay: Hep3B xenograft study. As to conditions: 0.1 μmol/kg (FIG. 13A) and 0.03 μmol/kg (FIG. 13B), Q7D×2. It counts as in vivo, CB17. SCID mice. The method, then: In this and other xenograft studies described herein, CB17. SCID mice were used.
ADCs were prepared combining drug linker compound (IV) and antibodies A, B, C, and E, to produce ADCs respectively designated ADC A, ADC B, ADC C, and ADC E. In vivo xenograft studies were performed for these four ADCs alongside ADC 3.1, a vehicle (formulation buffer) control, and an ADC control (an ADC of an anti-CD70 antibody with drug-linker (IV)), using Hep3B cells. Dosing was 0.1 μmol/kg (5 mg/kg) in one case (FIG. 13A) and 0.03 μmol/kg (1.5 mg/kg) in the other case (FIG. 13B). The dosing frequency was Q7D×2.

Assay [1] relates to Hep3B hepatocellular carcinoma cells. Kind of assay: 3H thymidine incorporation proliferation assay, Hep3B. It counts as cell-based, human. As to conditions: FIG. 11B. The method, then: The human tumor cell lines were obtained from the American Type Culture Collection (ATCC), P.O. Box 1549, Manassas, Va. 20108, USA, and cultured according to instructions from ATCC. Cells were seeded at 1.0×10^4 cells/well in 96-well plates. […] Plates were allowed to incubate for 72 h. The plates were pulsed with 1.0 μCi of ^3H-thymidine per well for the last 24 hours of the total incubation period, harvested, and read on a Top Count Scintillation Counter (Packard Instruments, Meriden, Conn.). The EC50 values—the ADC concentration at which cell proliferation was reduced by 50%—were determined using PRISM™ software, version 4.0 (GraphPad Software, La Jolla, Calif., USA).

Assay [2] in a line: FACS study of the binding of ADCs (FIG. 11C). The class given is cell-based.
The next assay deals with Glypican-3 (Homo sapiens, UniProt P51654). The experiment in a line: Biacore binding affinity of antibodies to glypican-3. Particulars: variant antibodies, Table 2. Background: SPR reads the build-up and loss of mass on a sensor chip optically.

B1: ADC A: ADC of antibody A with drug-linker of formula (IV) (conjugate)
heavy: EVQLVQSGAEVKKPGESLKISCKGSGYSFTSYWIAWVRQMPGKGLEWMGIIFPGDSHTGYSPSFQGQVTISADRSIRTAYLQWSSLKASDTAMYYCARTRQGYFDYWGQGTLVTVSSASTKGPSVFPLAPSSKSTSGGTAALGCLVKDYFPEPVTVSWNSGALTSGVHTFPAVLQSSGLYSLSSVVTVPSSSLGTQTYICNVNHKPSNTKVDKRV[human IgG1 Fc not spelt out]
light: [about 200 residues not spelt out]
B1: the “efficacy in reducing the tumor volume, comparison of ADCs” value (shortened to “efficacy in reducing the tumor volume”) in the assay on Hep3B tumors was “none of ADCs A, B, C or E was as efficacious as antibody GPC3.1”. Also, in assay [1], the “activity compared to ADC3.1” value is “slightly more active than ADC3.1”. In addition, the FACS binding entry in assay [2] is reported as “slightly more active than the other three”.

B2: Antibody C: variant of antibody GPC3.1; heavy chain variable region SEQ ID NO:27, kappa SEQ ID NO:28 (antibody, listed as Homo sapiens, V domains shown)
VH: EVQLVQSGAEVKKPGESLKISCKGSGYSFTRYWIAWVRQMPGKGLEWMGIIFPGDSHTGYSPSFQGQVTISADRSISTAYLQWSSLKASDTAMYYCARTREGYFDYWGQGTLVTVSS
VL: [about 100 residues not spelt out]
modifications: Antibody C heavy chain variable region; Antibody C kappa chain variable region
Take B2: in the assay with Glypican-3, the “koff × 10^−4 (1/s)” value is listed as 16 × 10^−4 1/s and the “kon × 10^4 (1/Ms)” value was 170 × 10^4 1/Ms.

B3: Antibody B: variant of antibody GPC3.1; heavy chain variable region SEQ ID NO:25, kappa SEQ ID NO:26 (antibody, listed as Homo sapiens, V domains shown)
VH: EVQLVQSGAEVKKPGESLKISCKGSGYSFTRYWIAWVRQMPGKGLEWMGIIFPGDSHTGYSPSFRGQVTISADKSISTAYLQWSSLKASDTAMYYCARTREGYFDYWGQGTLVTVSS
VL: [about 100 residues not spelt out]
modifications: Antibody B heavy chain variable region; Antibody B kappa chain variable region
Consider B3, for which, in the assay with Glypican-3, the “koff × 10^−4 (1/s)” value is reported as 36 × 10^−4 1/s and the “kon × 10^4 (1/Ms)” value is 170 × 10^4 1/Ms.

B4: ADC C: ADC of antibody C with drug-linker of formula (IV) (conjugate)
heavy: EVQLVQSGAEVKKPGESLKISCKGSGYSFTRYWIAWVRQMPGKGLEWMGIIFPGDSHTGYSPSFQGQVTISADRSISTAYLQWSSLKASDTAMYYCARTREGYFDYWGQGTLVTVSSASTKGPSVFPLAPSSKSTSGGTAALGCLVKDYFPEPVTVSWNSGALTSGVHTFPAVLQSSGLYSLSSVVTVPSSSLGTQTYICNVNHKPSNTKVDKRV[human IgG1 Fc not spelt out]
light: [about 200 residues not spelt out]
In the case of B4, the “efficacy in reducing the tumor volume” value with Hep3B tumors is reported as “none of ADCs A, B, C or E was as efficacious as antibody GPC3.1”. Further, the “activity compared to ADC3.1” value in assay [1] is “slightly more active than ADC3.1”.

B5: ADC B: ADC of antibody B with drug-linker of formula (IV) (conjugate)
heavy: EVQLVQSGAEVKKPGESLKISCKGSGYSFTRYWIAWVRQMPGKGLEWMGIIFPGDSHTGYSPSFRGQVTISADKSISTAYLQWSSLKASDTAMYYCARTREGYFDYWGQGTLVTVSSASTKGPSVFPLAPSSKSTSGGTAALGCLVKDYFPEPVTVSWNSGALTSGVHTFPAVLQSSGLYSLSSVVTVPSSSLGTQTYICNVNHKPSNTKVDKRV[human IgG1 Fc not spelt out]
light: [about 200 residues not spelt out]
Consider B5, for which the “efficacy in reducing the tumor volume” value with Hep3B tumors is “none of ADCs A, B, C or E was as efficacious as antibody GPC3.1”. For the same molecule, the “activity compared to ADC3.1” value in assay [1] is “slightly more active than ADC3.1”.

B6: Antibody A: variant of antibody GPC3.1; heavy chain variable region SEQ ID NO:23, kappa SEQ ID NO:24 (antibody, listed as Homo sapiens, V domains shown)
VH: EVQLVQSGAEVKKPGESLKISCKGSGYSFTSYWIAWVRQMPGKGLEWMGIIFPGDSHTGYSPSFQGQVTISADRSIRTAYLQWSSLKASDTAMYYCARTRQGYFDYWGQGTLVTVSS
VL: [about 100 residues not spelt out]
modifications: Antibody A heavy chain variable region; Antibody A kappa chain variable region
As to B6, in the assay with Glypican-3, the “koff × 10^−4 (1/s)” value is 29 × 10^−4 1/s and the “kon × 10^4 (1/Ms)” value is 110 × 10^4 1/Ms.
